# Among all 310,000 compounds or so, about 14,000 (4.5%) showed an effect of 50% or more. The effect is printed as a negative number. The list shows a part of the results.
# Target: human ether-à-go-go-related gene (hERG) potassium channel (human, UniProt Q12809)
# Test: primary screen, population patch clamp on CHO cells stably expressing hERG
# 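Further: peak tail current of the secondary pulse compared with the same well before compound.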
# human ether-à-go-go-related gene (hERG) potassium channel, sequence (Q12809 whole entry, looked up): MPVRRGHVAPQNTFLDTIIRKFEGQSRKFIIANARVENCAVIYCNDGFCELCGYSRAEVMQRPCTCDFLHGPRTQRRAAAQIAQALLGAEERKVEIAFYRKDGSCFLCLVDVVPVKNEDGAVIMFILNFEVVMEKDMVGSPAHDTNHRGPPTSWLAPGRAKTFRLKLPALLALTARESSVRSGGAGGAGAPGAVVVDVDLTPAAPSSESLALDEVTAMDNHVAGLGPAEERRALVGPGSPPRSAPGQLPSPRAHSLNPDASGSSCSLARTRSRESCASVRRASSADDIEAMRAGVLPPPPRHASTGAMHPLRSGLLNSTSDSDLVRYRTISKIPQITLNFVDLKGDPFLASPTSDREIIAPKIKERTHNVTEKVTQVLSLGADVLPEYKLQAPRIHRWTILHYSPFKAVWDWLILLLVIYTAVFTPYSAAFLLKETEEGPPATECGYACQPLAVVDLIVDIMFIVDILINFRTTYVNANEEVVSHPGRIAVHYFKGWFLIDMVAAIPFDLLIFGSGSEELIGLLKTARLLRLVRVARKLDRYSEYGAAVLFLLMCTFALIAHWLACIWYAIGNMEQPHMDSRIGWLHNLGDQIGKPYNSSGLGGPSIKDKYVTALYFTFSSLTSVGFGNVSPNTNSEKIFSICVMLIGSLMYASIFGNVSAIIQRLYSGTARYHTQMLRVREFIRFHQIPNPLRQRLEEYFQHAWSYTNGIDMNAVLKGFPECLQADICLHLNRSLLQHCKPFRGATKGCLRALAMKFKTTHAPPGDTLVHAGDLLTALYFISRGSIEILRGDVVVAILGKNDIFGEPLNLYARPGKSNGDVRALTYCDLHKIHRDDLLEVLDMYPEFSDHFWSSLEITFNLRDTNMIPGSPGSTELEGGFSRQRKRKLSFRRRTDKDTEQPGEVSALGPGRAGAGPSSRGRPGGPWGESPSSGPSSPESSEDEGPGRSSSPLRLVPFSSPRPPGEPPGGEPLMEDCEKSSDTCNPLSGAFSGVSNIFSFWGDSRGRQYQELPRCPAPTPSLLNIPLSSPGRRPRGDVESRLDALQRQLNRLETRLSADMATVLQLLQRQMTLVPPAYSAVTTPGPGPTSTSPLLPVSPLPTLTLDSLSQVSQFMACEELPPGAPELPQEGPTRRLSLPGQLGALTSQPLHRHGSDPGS
row,Structure (SMILES),"hERG current change (%, negative = inhibition) at 10uM"
1,Cc1ccc2nc(Cl)c(C3CC(c4cccs4)=NN3C(=O)CCC(=O)O)cc2c1 (stereo not drawn),20.9%
2,COc1ccccc1N1CCN(/N=C/C(Cl)=C/c2ccccc2)CC1,25.5%
3,Cc1ccc(NC(=S)c2nc3ccccc3s2)cc1,12.1%
4,COC(CN(C)C(C(=O)NC1CCCCC1)c1ccccc1)OC (stereo not drawn),-7.49%
5,CCCCN1CCc2[nH]c(=S)[nH]c(=O)c2C1,2.25%
6,NNC(=O)C1CCN(S(=O)(=O)c2ccc(Cl)cc2)CC1,12.9%
7,COc1ccc(/C=C/C(=O)c2oc3ccc(F)cc3c2C)cc1,6.1%
8,O=C(CCc1nnc2ccc(N3CCCC3)nn12)Nc1cc(F)ccc1F,-50.4%
9,Cc1nc(Cl)sc1C(=O)Nc1cccc(Cl)c1,12.6%
10,COc1ccc(C2SCCN2S(=O)(=O)c2ccccc2)cc1 (stereo not drawn),-4.42%
11,CCOC(=O)C1CN(C(C)(C)C)C(=O)C1=O (stereo not drawn),16%
12,COc1ccc(O)c(-c2[nH]ncc2C(=O)c2ccccc2)c1,12.8%
13,O=C(CN1C(=O)COc2ccccc21)NCCCN1CCN(Cc2ccccc2)CC1,-11.7%
14,CC(=O)N(Cc1cccs1)Cc1cc2ccc(C)c(C)c2nc1Cl,19.5%
15,Cc1cn(C2OC(COC(=O)c3ccccc3)C(O)C2Cl)c(=O)[nH]c1=O (stereo not drawn),-0.723%
16,CC1(C)CC(=O)C2=C(C1)NC(=O)CC2c1cccc(F)c1 (stereo not drawn),-4%
17,O=C(Nc1cc(Cl)ccc1Oc1ccccc1)c1cnccn1,15.5%
18,C[C@]12C=CC(=O)C=C1CC[C@@H]1C2[C@@H](O)C[C@@]2(C)C1CC[C@]2(O)C(=O)COC(=O)CCC(=O)O (stereo partly drawn),2.52%
19,Nc1nc(CSCCO)nc(Nc2ccc(F)cc2)n1,16.1%
20,CCN1C(=O)c2cccc3c(S(=O)(=O)N4CCC(C)CC4)ccc1c23,-16.8%
21,CC(=O)Nc1ccc(NC(=O)CSc2nnc(C)c(=O)n2N)cc1,0.297%
22,O=C1C2ON(c3ccccc3)C(c3ccccc3F)C2C(=O)N1c1ccccc1 (stereo not drawn),-5.85%
23,CCc1nc(SCc2cccnc2)c(C#N)cc1C,-20%

row,Structure (SMILES),"hERG current change (%, negative = inhibition) at 10uM"
1,Cc1onc(-c2c(F)cccc2Cl)c1C(=O)N1CCc2ccccc21,-23.1%
2,Cc1ccc(NS(=O)(=O)c2ccc3c(c2)NC(=O)CCS3)cc1F,7.64%
3,CC(Cc1cccnc1)NC(=O)c1cc(COc2c(F)cccc2F)on1 (stereo not drawn),-0.167%
4,CS(=O)(=O)N1CCc2cc(C(=O)Nc3ccccc3Cl)ccc21,-6.05%
5,S=C(c1ccc(-c2ccccc2)cc1)N1CCOCC1,6.09%
6,Cc1ccccc1SCC(=O)Nc1ccc(N2CCOCC2)cc1,1.82%
7,CCC(=O)Oc1ccc(/C(CC)=C(\CC)c2ccc(OC(=O)CC)cc2)cc1,12.1%
8,CCN1CCN(c2nc3c(c(=O)[nH]c(=O)n3C)n2CCCSc2ncccn2)CC1,-5.43%
9,COc1cc(NC(=O)c2ccc(Br)cc2)ccc1NC(=O)c1cc2ccccc2o1,5.79%
10,Br.C=CCN1C2=NCCCN2c2ccccc21,-13.9%
11,Cl.O=C(Cn1c(NCCCl)nc2ccccc21)c1ccc(Br)cc1,-31.6%
12,NC(=S)N/N=C/c1ccc([N+](=O)[O-])cc1,-8.06%
13,Cc1cnc(C(=O)OCC(=O)N(Cc2ccccc2)C(C)C)cn1,20.4%
14,Cc1cccc(NC(=O)CSC2=NN3CCCC(=O)N=C3S2)c1C,-14%
15,Cl.NCC1(c2ccc3c(c2)OCCO3)CCCC1,-10.4%
16,COc1cc(NC(=O)CSc2nnc3ccc(-c4cccnc4)nn23)cc(OC)c1,-9.05%
17,COc1ccc(CN2C(=O)c3cccc4cccc2c34)cc1F,17.7%
18,CCCC(=O)Nc1nnc(SCC)s1,15.9%
19,COc1cc(C2C(C(C)=O)=C(O)C(=O)N2Cc2ccccc2)ccc1O (stereo not drawn),16.2%
20,CC(Nc1cc(N2CCNCC2)ccc1[N+](=O)[O-])c1ccccc1 (stereo not drawn),-7.49%
21,N#CCCN(C(=O)COC(=O)CNC(=O)C12CC3CC(CC(C3)C1)C2)c1ccccc1,-23.5%
22,O=C(Nc1cc(Cl)ccc1-n1cncn1)c1ccc([N+](=O)[O-])o1,-22.4%
23,COC(=O)C1C(=O)C2=C(CC1C)NC(=O)CC2c1ccc(F)cc1 (stereo not drawn),18.6%

row,Structure (SMILES),"hERG current change (%, negative = inhibition) at 10uM"
1,COc1cc2nc(-c3ccc(Br)o3)oc(=O)c2cc1OC,13.3%
2,COc1ccc([N+](=O)[O-])cc1NC(=O)C1CCCCC1C(=O)O (stereo not drawn),3.39%
3,CC(OC(=O)/C(C#N)=C/c1ccc(N(C)C)cc1)C(=O)N(C)Cc1ccccc1 (stereo not drawn),-0.266%
4,Cc1cc(C(=O)Nc2ccc3c(c2)OCCO3)c2ccccc2n1,18.4%
5,COc1ccc(N2CC(C(=O)NCCc3ccc(Cl)cc3)CC2=O)c(OC)c1 (stereo not drawn),-36.9%
6,CN(C1CCCCC1)S(=O)(=O)c1cccc(C(=O)OCC(=O)NC2CCCc3ccccc32)c1 (stereo not drawn),-13.9%
7,S=C(NCCc1ccccc1)Nc1ccc(Cl)cc1,7.16%
8,N#Cc1nc(Cl)c(Cl)c(NN)c1Cl,15.2%
9,Cc1ccc(-c2csc3ncnc(SCC(=O)c4ccc5c(c4)OCCO5)c23)cc1,8.67%
10,O=C(CN1C(=O)NC2(CCCc3ccccc32)C1=O)Nc1cc(F)ccc1F (stereo not drawn),5.45%
11,CCCCCNc1c(C(=O)OCC)c(=O)[nH]c2ccccc12,-11.7%
12,C=CCOc1ccc(/C=C2\SC(=S)N(CCC(=O)O)C2=O)cc1,14%
13,COc1ccc(C(c2sc3nc(C)nn3c2O)N2CCC(C(N)=O)CC2)cc1OC (stereo not drawn),-6.51%
14,CC(=O)N1CN(C(C)=O)CN(C(C)=O)C1,3.72%
15,Cc1ccc(NC(=S)N=Nc2c(O)[nH]c3ccccc23)cc1,9.41%
16,S=C(NCc1ccccc1)Nc1ccc2cn[nH]c2c1,-7.58%
17,CCOC(=O)C1(Cc2ccccc2)CCCN(Cc2ccncc2)C1 (stereo not drawn),-17.4%
18,CCc1cccc(NC(=O)Cc2ccc(OC)c(OC)c2)c1,5.57%
19,CCC1CCCCN1C(=O)CSc1nnc(-c2ccco2)o1 (stereo not drawn),4.11%
20,COc1cc(C(=O)NC2CCCc3c2cnn3-c2ccccc2F)cc(OC)c1OC (stereo not drawn),11.4%
21,Cc1nn2c3c(cnc2c1-c1ccccc1)C(=O)CCC3,11.5%
22,CCOC(=O)c1ccc(N2CSC3=C(C#N)C(c4ccc(OC)cc4OC)CC(=O)N3C2)cc1 (stereo not drawn),6.82%
23,c1ccc(Cc2nnc3sc(Nc4ccccc4)nn23)cc1,-1.51%

row,Structure (SMILES),"hERG current change (%, negative = inhibition) at 10uM"
1,COc1ccc(/C=N/n2c(=O)[nH]c3c([nH]c4ccc(Br)cc43)c2=O)cc1CN1CCOCC1,5.45%
2,Cc1ccc2cc(CN(C(=O)c3ccco3)c3cccc(C)c3C)c(=O)[nH]c2c1,2.34%
3,O=C(Nc1nc2ccccc2s1)c1ccccc1[N+](=O)[O-],8.98%
4,COc1ccc(CCNC(=O)C2(C)CCC(=O)N2Cc2ccc(F)cc2Cl)cc1OC (stereo not drawn),12.1%
5,Cc1cc(-c2nn(-c3ccccc3F)cc2CN2CCN(c3ccncc3)CC2)c(C)s1,-94.3%
6,CCOC(=O)Nc1ccc2c(c1)N(C(=O)C(C)N1CCCC1)c1ccccc1CC2.Cl (stereo not drawn),-60.2%
7,CC1CC(=O)Nc2ccccc2N1C(=O)Nc1ccc(F)cc1F (stereo not drawn),9.36%
8,NC(=O)c1ccc(NC(=O)COC(=O)C2CC(=O)N(Cc3ccccc3)C2)cc1 (stereo not drawn),-19%
9,CCOC(=O)N1CCN(C(=O)CN2C(=O)NC(c3ccccc3)(c3ccccc3)C2=O)CC1,-16.8%
10,CSc1ccccc1C(=O)N1CCC2(CC1)CC(=O)c1ccccc1O2,-61%
11,C/C(=N\NC(=O)c1ccoc1C)c1ccc(Br)s1,3.5%
12,c1ccc(C2Oc3ccccc3C3CC(c4cccs4)=NN32)cc1 (stereo not drawn),3.71%
13,O=C(O)c1cccc(COc2ccc(CO)cc2Cl)c1,-2.55%
14,O=C(O)CC(Cc1ccc(Cl)cc1)C(=O)Nc1cc(Cl)ccc1Cl (stereo not drawn),21.5%
15,CCNC(=S)N(Cc1cc2cc(C)c(C)cc2[nH]c1=O)C1CCCC1,-5.42%
16,O=C(/C=C/c1ccc(Cl)cc1)NC(=S)Nc1ccc(N2CCOCC2)c(Cl)c1,-11.7%
17,CN(C(=O)c1ccc(OC2CCN(C(=O)c3cccnc3)CC2)cc1)C1CCCCC1,-15.4%
18,O=C(C1CCN(S(=O)(=O)c2ccc(F)cc2)CC1)N1CCCC(C(F)(F)F)C1 (stereo not drawn),-17.5%
19,COc1ccc(NC(=O)C2CC(=O)N(c3cccc(C)c3C)C2)cc1 (stereo not drawn),-0.228%
20,O=C(COC(=O)c1ccc(F)cc1F)NCCC1=CCCCC1,10.6%
21,CNC(=O)c1cn(-c2ccccc2)c(=O)c2ccccc12,-1.63%

# Reference: article PMC4336329 (PLoS ONE, 2015)
